# The supplement of paper PMC8728848
# The list shows a part of the results.
# How the values were obtained:
# [1] = molecular target: Neu5Gc(a2-8)Neu5Gc(a2-6)Gal(b1-4)GlcNAc; test: glycan array binding signal (z-score within array); higher = stronger binding; details: glycan notation: IUPAC condensed, linker removed
# Method in brief: (§1)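 Negative Z-scores can be read as non-binding. The Z-score is calculated within each array and then averaged across arrays of one protein sequence at different concentrations or buffers and across linkers. Arrays, 3228 in all, were curated from the Consortium for Functional Glycomics database and kept only where the protein sequence was available.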
# [2] = molecular target: Neu5Gc(b2-6)Gal(b1-4)GlcNAc; test: as above; details: glycan notation: IUPAC condensed, linker removed
# Method in brief: as §1
binder,measurement,setting,value
PX14375C-bth-509-28-509 (Bacteroides thetaiotaomicron) (protein) RSPQGQFTEDDNPNALVNGKIYNVYTMMRSFDITAGTPAIAIHYLRSEDSEKGSIPSDGSDVAEMYDDFLYTPTNGLLGSYWGKNYAIIYQCNDILDAIAEKETAGQTETEDIINKGEASFFRAYCYFNLVRAFGEVPLVTYKINDASEANIPKTTADKIYEQIDTDLKTAEESLPETWSTEYTGRLTWGAARSLHARTYMMRSDWDNMYKASTDVINKGLYNLKTPYNEIFTDDGENSGGSIFELQCTATAALPQSDVIGSQFCEVQGVRGAGQWDLGWGWHMATQLMADAYETGDPRKNATLLYFRKTDDEPITPENTNEPYGESPISPAMGAYFNKKAYTDPALRKEYTNKGFWVNIRLIRYSDVVLMAAEAANEKNIPGEAVDYLEMVRARARGTNTNILPKITTNDQGELREAIRHERRVELGLEPDRFYDLVRWGIASEVLHAAGKVNYQDKNALLPLPQSEIDKSKGVLVQNPDY,glycan array binding signal (z-score),[1],-0.469
same,glycan array binding signal (z-score),[2],-0.215
